# Laboratory results published in PubChem BioAssay AID686979 (National Center for Advancing Translational Sciences (NCATS), 2013).
# Among all 420,000 compounds or so, about 50,000 (12%) were called active. Inconclusive results, whose numbers are uncertain, are shown with a selection of clear calls. Calls follow the shape of the dose curve; as a rule, active = well fitted inhibition curve with a large enough effect; inconclusive = small, poorly fitted or top-dose-only effect; inactive = flat fitted curve, though single readings scatter. Potencies of inconclusive entries are left out as doubtful fits.
# Assay: qHTS for Inhibitors of human tyrosyl-DNA phosphodiesterase 1 (TDP1): qHTS in cells in presence of CPT; also: nearly all actives have a fitted effect of over 55% in size
# Details: chicken DT40 Tdp1-/-;hTDP1 cells + 20 nM CPT, ATP luminescence, 48 h; activity change, negative = growth inhibition: at 46.2 µM (top of the series) unless noted
# Summary of the method: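 Chicken DT40 Tdp1-/- cells stably complemented with human TDP1 were seeded at 400 cells/well in medium containing 20 nM camptothecin, exposed to pin-transferred compounds, and grown at 37 °C for at least 48 hr. Viability was read as ATP luminescence.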
# % is scaled to controls: 0 for no effect and ±100 for the full control effect; potency is read from the fitted curve at half-maximal effect; tags tell the direction and shape of the fitted curve.
SMILES,Potency,"activity change, negative = growth inhibition"
COc1ccc(CC(N)c2csc(Nc3cccc(OC)n3)n2)cc1 (stereo unspecified),active: 14.6 µM,
COc1cccc(-n2cc3c(c2-c2ccccc2)c(=O)n(C)c(=O)n3C)c1,active: 23.1 µM,
O=C(N/N=C\C=C\c1ccc([N+](=O)[O-])o1)c1cccs1,active: 4.11 µM,
O=C(NCCOCc1ccc(Cl)cc1)c1ncn[nH]1,"inconclusive [inhibitor, single point]",
CCCn1cnc2c(c1=O)c1nc3ccccc3nc1n2CCc1ccccc1,"inconclusive [inhibitor, single point]",
COc1ccc(CNc2ncncc2-c2ccccc2C(F)(F)F)c(OC)c1,"inconclusive [inhibitor, single point]",
Cc1cc(N2CCN(c3ccccc3)CC2)nc(NCc2ccccc2)n1,active: 20.6 µM,
CCC(Cc1ccccc1)NC(=O)Cn1ncc2c3ccccc3n(Cc3ccccc3)c2c1=O (stereo unspecified),active: 16.4 µM,
Cc1cc(O)cc2c1C1CCC3(C)C(O)CCC3C1C=C2 (stereo unspecified),"inconclusive [inhibitor, single point]",
CC1CCC(NC(=O)c2cc(S(=O)(=O)N3CCCCC3)ccc2N2CCOCC2)CC1 (stereo unspecified),"inconclusive [inhibitor, single point]",
COc1cc(/C=N/n2nnnc2N)ccc1OCc1c(C)no[n+]1[O-],"inconclusive [inhibitor, single point]",
Cc1ccnn1CC(=O)N/N=C/c1ccc([N+](=O)[O-])s1,active: 25.9 µM,
O=C(CN1C2CCCC1CC(NC(=O)c1ccccc1)C2)Nc1ccccc1C(F)(F)F (stereo unspecified),"inconclusive [inhibitor, single point]",
CCCCN1C[C@H](Cc2ccccc2)[C@@H](CC(=O)NCc2ccc(OC)cc2)C1=O,active: 17.8 µM,
COc1cccc(Cn2c(=O)c(CCc3ccccc3)nc3cnc(N4CCN(C)CC4)nc32)c1,"inconclusive [inhibitor, single point]",
NS(=O)(=O)c1ccc(CCNC(=O)CN2CCN(S(=O)(=O)c3ccccc3F)CC2)cc1,"inconclusive [inhibitor, single point]",
Cc1ccc(Nc2nnc(-c3ccc(C)c(S(=O)(=O)N4CCOCC4)c3)c3ccccc23)c(C)c1,"inconclusive [inhibitor, single point]",
O=C(/C=C/c1ccccc1)Nc1cccc(S(=O)(=O)Nc2ccccc2F)c1,active: 14.6 µM,
CNC(=O)CCCCC(=O)N/N=C/c1ccc(Cl)cc1Cl,,inactive: -6.79%
COc1ccc(CNC(=O)CN(c2ccc(OC)c(Cl)c2)S(=O)(=O)c2ccc(C)cc2)cc1,active: 25.9 µM,
CCN1C(=O)[C@H]2[C@@H](c3ccc(-c4ccc(F)cc4)c(OC)c3)N3CCCC[C@@]3(C(=O)OC)[C@H]2C1=O,active: 23.1 µM,
CCOc1cc(S(=O)(=O)N2CCC(c3nc4ccccc4s3)CC2)c(OCC)cc1S(=O)(=O)N1CCCCC1,"inconclusive [inhibitor, single point]",
Cc1ccc(-n2ncc3c(=O)n(CC(=O)NCc4ccco4)cnc32)cc1,"inconclusive [inhibitor, single point]",
CCN(C(=O)c1cc(Cl)ccc1OC)c1ccccc1C,"inconclusive [inhibitor, single point]",

SMILES,Potency,"activity change, negative = growth inhibition"
Cc1ccccc1-c1cc2nc(NCCOc3ccccc3Cl)n(C)c(=O)c2s1,"inconclusive [inhibitor, single point]",
CCOC(=O)C1=C(C)NC(C)=C(C(=O)OCC)C1c1cc2ccc(C)cc2[nH]c1=O,active: 23.1 µM,
CCOc1ccc(C2NC(=O)C(C#N)=C(S)N2c2ccc(OC)cc2)cc1OC (stereo unspecified),"inconclusive [inhibitor, partial curve]",
CCc1cc(C(=O)c2ccc(OC)cc2)c(NC(=O)COCC(=O)O)s1,,inactive: 6.88%
COc1ccc(C(O)Cn2ccsc2=NC(C)=O)cc1 (stereo unspecified),active: 23.1 µM,
O=C(NCc1ccccc1)C1CC2CCCC(C1)C2=O (stereo unspecified),,inconclusive: -36.3% [inhibitor]
Nc1cc(=O)[nH]c(SCc2ccc(Cl)cc2Cl)n1,active: 8.2 µM,
Cc1cccc2c(/C=C/c3ccc(N(C)C)cc3)ccnc12,,inconclusive: -30.2% [inhibitor]
CC(C)(C)Nc1nc(Nc2ccc([N+](=O)[O-])cc2)nc(NC(C)(C)C)n1,active: 20.6 µM,
CSc1ccccc1C(=O)NCc1nc(-c2cccc(NC(=O)c3ccoc3C)c2)oc1C,"inconclusive [inhibitor, single point]",
Cc1ccc(-n2c(C)c(C)c3c(NCCN(C)C)ncnc32)cc1,,inconclusive: -30.5% [inhibitor]
Nc1ccc2oc(-c3ccc4nc[nH]c4c3)nc2c1,active: 20.6 µM,
c1ccc(-c2cn3nc(-c4ccccc4)c(-c4ccccc4)nc3n2)cc1,"inconclusive [inhibitor, single point]",
COc1ccc(NC(=O)COC(=O)c2ccc(S(=O)(=O)N(C)c3ccccc3OC)cc2)cc1OC,,inactive: -1.06%
O=C(O)/C=C/C(=O)Nc1ccc(OC(F)(F)Cl)cc1,,inactive: 23.8%
Cn1cc(-c2nc3cncnc3n(Cc3ccc(F)cc3)c2=O)c2ccccc21,"inconclusive [inhibitor, single point]",
CC(C)c1ccc(NC(=O)NC2CCN(CC(=O)Nc3cccc4ccccc34)CC2)cc1,"inconclusive [inhibitor, single point]",
COc1cccc(CN2CCN(Cc3cccc(Oc4ccccc4)c3)CC2)c1OC,"inconclusive [inhibitor, single point]",
O=C1C[C@@H]2c3c(cccc3CN1Cc1ccc(Br)cc1)C[C@@H](O)[C@H]2O,inactive,
OCCCc1nc2n(n1)C(c1ccccc1Cl)C=C(c1cccs1)N2 (stereo unspecified),"inconclusive [inhibitor, single point]",
C=CCOc1ccc2cccc(/C=N/NC(=O)c3cc4cc([N+](=O)[O-])ccc4s3)c2c1,"inconclusive [inhibitor, single point]",
Cn1ccnc1C(=O)c1cc(=O)c2ccccc2o1,"inconclusive [inhibitor, single point]",
CCN(CC)CCCNC(=O)c1cc(-c2ccc(Cl)cc2)on1,"inconclusive [inhibitor, single point]",
Cc1ccc(Cl)cc1N1CCN(C(=O)c2cc(S(=O)(=O)N3CCCC3)cn2C)CC1,active: 16.4 µM,

SMILES,Potency,"activity change, negative = growth inhibition"
CCNS(=O)(=O)c1cccc(C(=O)c2c(C)cc3ccccn23)c1,"inconclusive [inhibitor, single point]",
N#Cc1cccc(-c2ccc3ncnc(NCCN4CCOCC4)c3c2)c1,"inconclusive [inhibitor, single point]",
CN(C)c1ccc(/C=C/c2ccnc3c(-c4ccccc4)cccc23)cc1,active: 11.2 µM,
CCCCc1nc2cc(C(=O)N3CCCCC3CC(=O)OCC)ccc2o1 (stereo unspecified),"inconclusive [inhibitor, single point]",
COc1ccc(Cc2nc3ccccc3[nH]2)cc1OC,,inactive: -16%
CCc1ccccc1NC(=O)CN1CCN(C(=O)CNC(=O)c2ccccc2F)CC1,,inactive: -2.58%
Cc1ccccc1NC(=O)Nc1ccc(C(F)(F)F)cc1,active: 9.2 µM,
Cc1ccc(NC(=O)Cn2c(=O)n(-c3ccccc3)c(=O)c3c4c(sc32)CCCC4)cc1,active: 14.6 µM,
COc1ccc(C)cc1NC(=O)NCc1ccc2c(c1)CCN2C(=O)c1ccccc1,active: 23.1 µM,
O=C1c2cc(F)ccc2-n2c1nc1ccccc1c2=O,active: 0.206 µM,
Cc1[nH]c(SCC(=O)c2c(N)n(C)c(=O)n(C)c2=O)nc1Cc1ccccc1,"inconclusive [inhibitor, single point]",
C=Cc1ccc(CN2C(=O)N(c3ccc(CC)cc3)S(=O)(=O)c3ccccc32)cc1,"inconclusive [inhibitor, partial curve]",
COc1ccc(C)cc1NC(=O)CSc1nc(=O)n(Cc2ccncc2)c2c1CCC2,"inconclusive [inhibitor, single point]",
COc1ccc(C)cc1Nc1nc2cc(Cl)c(Cl)cc2nc1-n1nc(C)cc1C,,inactive: 5.71%
CS(=O)(=O)N(CC(=O)NCCSCc1ccco1)c1ccc2c(c1)OCO2,"inconclusive [inhibitor, single point]",
CCOC(=O)c1cnc2cc(-c3ccc(C)cc3)nn2c1-c1ccccc1,"inconclusive [inhibitor, single point]",
Cc1cccc(-n2ncc3c(N(C)Cc4ccccc4)ncnc32)c1,"inconclusive [inhibitor, partial curve, poor fit]",
Cn1ncc(Br)c1C(=O)NC12CC3CC(CC(C3)C1)C2,,inactive: -19.1%
Cc1n[nH]c(=S)n1-c1ccc(Cl)cc1,,inconclusive: -5.81% [inhibitor]
CCOC(=O)c1c(S(=O)(=O)Nc2ccc(C)cn2)c(C)n(C)c1C,"inconclusive [inhibitor, single point]",
CC(C)CN(Cc1c(O)ccc2ccccc12)CC(C)C,"inconclusive [inhibitor, partial curve]",
CC(C)[C@H](NS(=O)(=O)c1ccccc1)C(=O)OCC(=O)NC1CCCCC1,"inconclusive [inhibitor, single point]",
CCc1cccc(N2C(=O)N(CC(=O)NCc3cccc(OC)c3OC)c3ccccc3S2(=O)=O)c1,active: 13 µM,
